# Data reported in article PMC4336329 (PLoS ONE, 2015).
# The campaign covered roughly 310,000 compounds. About 2,200 (0.71%) showed an effect of 50% or more. The effect is printed as a negative number. The list shows a part of the results.
# Target: human ether-à-go-go-related gene (hERG) potassium channel (human, UniProt Q12809)
# Test: primary screen, population patch clamp on CHO cells stably expressing hERG
# Chain of human ether-à-go-go-related gene (hERG) potassium channel (Q12809 whole entry, looked up): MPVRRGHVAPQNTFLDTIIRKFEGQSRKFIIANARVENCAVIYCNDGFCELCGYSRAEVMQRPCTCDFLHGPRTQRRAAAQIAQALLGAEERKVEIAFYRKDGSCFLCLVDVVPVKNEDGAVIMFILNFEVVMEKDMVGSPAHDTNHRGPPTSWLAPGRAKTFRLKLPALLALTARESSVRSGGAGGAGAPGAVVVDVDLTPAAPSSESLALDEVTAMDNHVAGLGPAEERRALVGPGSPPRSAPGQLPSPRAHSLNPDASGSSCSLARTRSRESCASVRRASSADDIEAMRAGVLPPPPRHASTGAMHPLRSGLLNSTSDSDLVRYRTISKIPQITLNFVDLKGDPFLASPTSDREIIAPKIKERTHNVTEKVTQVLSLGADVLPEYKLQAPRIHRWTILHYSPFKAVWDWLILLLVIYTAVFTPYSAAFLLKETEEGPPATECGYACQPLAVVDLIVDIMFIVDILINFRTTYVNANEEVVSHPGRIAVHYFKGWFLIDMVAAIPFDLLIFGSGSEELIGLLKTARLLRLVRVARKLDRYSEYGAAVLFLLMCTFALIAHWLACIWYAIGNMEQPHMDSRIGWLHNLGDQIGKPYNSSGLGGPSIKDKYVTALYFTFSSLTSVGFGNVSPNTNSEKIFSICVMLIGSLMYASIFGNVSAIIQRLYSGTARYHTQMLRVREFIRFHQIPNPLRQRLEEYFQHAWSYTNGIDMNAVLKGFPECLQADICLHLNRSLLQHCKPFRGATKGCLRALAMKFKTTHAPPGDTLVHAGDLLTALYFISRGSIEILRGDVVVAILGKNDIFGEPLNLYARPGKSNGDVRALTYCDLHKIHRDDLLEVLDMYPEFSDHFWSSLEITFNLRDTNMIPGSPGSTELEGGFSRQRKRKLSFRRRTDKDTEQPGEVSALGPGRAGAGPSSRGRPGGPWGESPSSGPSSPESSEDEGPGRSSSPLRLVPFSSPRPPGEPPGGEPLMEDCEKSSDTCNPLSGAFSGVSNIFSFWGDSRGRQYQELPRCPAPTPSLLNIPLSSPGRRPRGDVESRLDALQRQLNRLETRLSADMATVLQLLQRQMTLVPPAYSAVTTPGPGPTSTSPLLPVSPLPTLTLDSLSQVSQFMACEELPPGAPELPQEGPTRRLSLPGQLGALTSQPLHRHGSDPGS
row,Structure (SMILES),"hERG current change (%, negative = inhibition) at 1uM [%]"
1,CCOC(=O)c1cc(-c2ccc(OC)cc2)nn1-c1ccc(C(=O)O)cc1,10.2
2,CCOC(=O)c1c(NC(=O)CC2SC(=NC)N(C)C2=O)sc(C)c1C (stereo not shown),3.73
3,CCOc1ccccc1C(=O)N/N=C/c1cccc2cccnc12,9.42
4,CN(C)S(=O)(=O)c1cccc(NC(=O)c2cccc(NS(=O)(=O)c3ccccc3)c2)c1,12.2
5,CN(CC(=O)Nc1ccccc1C(F)(F)F)C(=O)c1cccc(-n2cccc2)c1,6
6,CCCCN(Cc1ccccc1)S(=O)(=O)c1ccc2[nH]c(=O)oc2c1,6.79
7,CCCCn1c(O)c(C(C)=Nc2ccc(OCC)cc2)c(=O)[nH]c1=O,6.03
8,CC1=NN(C(=O)c2nn(C)cc2Br)C(O)(C(F)(F)F)C1 (stereo not shown),9.17
9,CC(=O)Nc1ccc(NC(=O)Cn2cc3c(n2)CCCC3)cc1,7.63
10,Cn1c(N)c(C#N)c2c(c1=S)COC(C)(C)C2,9.76
11,CC1(C)CC(=O)C2=C(C1)N(c1ccccc1)C(N)=C(C#N)C2c1cccnc1 (stereo not shown),11.2
12,O=C(NCC1CCCO1)c1ccc([N+](=O)[O-])s1 (stereo not shown),9.14
13,c1ccc(-c2nnc(SCC3CCCCO3)nc2-c2ccccc2)cc1 (stereo not shown),17.3
14,COc1cccc(C2=CC(c3ccccc3)n3ncnc3N2)c1 (stereo not shown),9.62
15,COc1ccc(CCNC(=O)C(=O)NCc2ccc(Cl)cc2)cc1OC,19
16,NS(=O)(=O)c1ccc(NC(=O)CSc2n[nH]c(=O)n2Cc2ccccc2)cc1,12.5
17,COc1cccc(C(=O)OCC(=O)NCCCc2ccccc2)c1,9.81
18,O=C(NN1CCCCC1)c1ccccc1,3.97
19,O=C(CNC(=O)c1cccs1)NCC(=O)OCc1cccc(Cl)c1,0.407
20,Cc1nc(-c2ccc(F)cc2)c(CC(=O)NCC(=O)Nc2ccc(F)c(F)c2)s1,-14.9
21,CC(=O)N1CCc2c(sc(NC(=O)C3CC3)c2-c2nc3ccccc3s2)C1,9.49
22,COc1ccc2c(c1)c(C(=O)N/N=C/c1ccccc1Cl)c(C)n2C,8.08
23,COc1ccc(S(=O)(=O)N2CCC(C(=O)NC3CCCC3)CC2)cc1OC,37

row,Structure (SMILES),"hERG current change (%, negative = inhibition) at 1uM [%]"
1,Cc1ccc(-n2c(=O)[nH]cc(C(=O)N3CCc4ccccc43)c2=O)cc1C,2.92
2,Cc1[nH]nc2c1C(C1CC=CCC1)C(C#N)=C(N)O2 (stereo not shown),12
3,Cc1ccc(-n2nc(-c3cccnc3)cc2C(=O)N2CCOCC2)c(C)c1,13.2
4,Cc1ccc(NC(=S)/C(=C(\[O-])c2ccc(C)c([N+](=O)[O-])c2)[n+]2ccccc2)cc1C,-3.25
5,COC(=O)C1CN(C(=O)COc2ccc(Cl)cc2C)c2ccccc2O1 (stereo not shown),11.7
6,O=S(=O)(c1cccc(C(F)(F)F)c1)N1CCN(C(=S)NC2CC2)CC1,10.2
7,Cn1c(=O)c2c(nc(CN3CCOCC3)n2CCc2ccccc2)n(C)c1=O,5.54
8,CCn1cc(C(=O)NCCCN(C)C)c(=O)c2cc(F)c(N3CCN(C)CC3)cc21.Cl,14.9
9,CC(NCC(O)COCc1ccc(Cl)cc1)c1ccccc1.Cl (stereo not shown),-14.4
10,COc1ccc(C(=O)NN2CCOCC2)cc1,-12.6
11,Cc1ccc(C(=O)N2CCN=C2SCc2ccc([N+](=O)[O-])cc2)cc1,-16.9
12,Cc1csc(C(C#N)C(=O)c2ccncc2)n1 (stereo not shown),14.3
13,NNC(=O)CCN(Cc1ccco1)S(=O)(=O)c1ccc(Cl)cc1,11.8
14,Cc1cc(NC(=O)CSC2=NS(=O)(=O)c3ccccc3N2)no1,14.6
15,O=C(N/C(=C\c1ccc(O)cc1)C(=O)N1CCCCC1)c1ccccc1,5.86
16,O=C(O)c1cccc(N2C(=O)c3cccnc3C2=O)c1,11.1
17,Cc1cccc(NC(=O)C2CCN(S(=O)(=O)c3cccc4nsnc34)CC2)c1,5.39
18,c1ccc(CNc2nc3ccccc3n3cnnc23)cc1,7.94
19,CC(C)(C)c1ccc(/C=N/Nc2ccc(C(=O)O)cc2)cc1,3.13
20,COc1ccc(-n2ccnc2SCC(=O)NC2CCCC2)c(OC)c1,7.43
21,COc1cccc(OC)c1C(=O)Nc1cccc2c1CCCC2,15.3
22,COc1ccc(Oc2coc3cc(OC(=O)c4cncc(Br)c4)ccc3c2=O)cc1,11.1
23,COc1cccc(NC(C)=[N+](C)CCNS(=O)(=O)c2ccc(Cl)cc2)c1.[I-],-36.6

row,Structure (SMILES),"hERG current change (%, negative = inhibition) at 1uM [%]"
1,CC(C)c1ccc(C2N3CC4([N+](=O)[O-])CN2CC([N+](=O)[O-])(C3)C4(C)C)cc1 (stereo not shown),22.6
2,Cc1ccc2cc([N+](=O)[O-])ccc2n1,13
3,CCOc1cc2[nH]c(=S)n(CCCC(=O)NCc3ccccn3)c(=O)c2cc1OCC,11.3
4,Oc1[nH]c2ccccc2c1N=NC(=S)NCCc1ccccc1,8.33
5,CC1=NN(c2ccc(C(=O)O)cc2)C(=O)CC1,14.3
6,N#Cc1c(N)nc(SCC(=O)NCc2ccc3c(c2)OCO3)c(C#N)c1-c1cccs1,-2.25
7,CCCS(=O)(=O)N1CCCC(C(=O)N2CCC(Cc3ccccc3)CC2)C1 (stereo not shown),4.01
8,Cc1noc(C)c1COc1ccccc1C(=O)N(C)Cc1ccco1,9.46
9,CCOC(=O)CC1C(=O)NCCN1C(=O)Nc1ccc(Cl)cc1 (stereo not shown),7.85
10,CCOC(=O)CC(=O)CSc1nc2c(cc1C#N)CCCCCC2,-3.51
11,CC(/C=N\NC(=O)CN1CCN(Cc2ccccc2)CC1)=C\c1ccco1,-0.21
12,O=C(CSc1nnc(Nc2ccccc2)s1)Nc1cccnc1Cl,2.05
13,COCCCNC(=O)CSc1c2c(nc3ccc(Cl)cc13)CCCC2,12.1
14,CCn1c(O)c(/C=N/N=C/c2ccccc2)c2ccc(C3=NNC(=O)CC3)cc21,8.69
15,CC1CCCN(C(=O)Nc2cccc(NC(=O)N3CCCC(C)C3C)c2)C1C (stereo not shown),2.73
16,C1=C(C(c2nnnn2C2CCCCC2)N2CCCCC2)COc2ccccc21 (stereo not shown),5.23
17,CCN(Cc1ccccc1)S(=O)(=O)c1cc(C(=O)OC)n(C)c1,-2.53
18,CCOc1ccccc1NC(=O)CCCCCN1C(=O)[C@@H]2Cc3ccccc3CN2C1=O,1.59
19,CCN=C(NCC)SC1CC(=O)N(c2cccc(OCC)c2)C1=O (stereo not shown),9.12
20,CCC1(c2ccccc2)NC(=O)N(CC(=O)N(C)CC(=O)Nc2ccc(F)c(F)c2F)C1=O (stereo not shown),-1.76
21,CCn1cc(C(=O)O)c(=O)c2cc(F)c(N3CCN(C(=S)Nc4ccccc4OC)CC3)cc21,5.28
22,O=C(NCCc1cn2ccccc2n1)C1CCCCC1,5.76
23,COc1ccc(OCC(=O)Nc2ccc3c(c2)nc(CN2CCN(C(C)=O)CC2)n3C)cc1.Cl,7.69

row,Structure (SMILES),"hERG current change (%, negative = inhibition) at 1uM [%]"
1,CC(C)c1ccccc1NC(=O)COC(=O)c1cccnc1,16.5
2,CC(Nc1n[nH]c(=O)[nH]c1=O)C(=O)N/N=C/c1ccccc1 (stereo not shown),10.3
3,O=C(NNC(=O)c1ccccc1F)c1cccs1,11.9
4,Cc1ccc(C)c(N(CC(N)=O)S(C)(=O)=O)c1,4.47
5,O=C1CCC(C(=O)Nc2ccc([N+](=O)[O-])cc2)N1 (stereo not shown),9.5
6,CCOCCCNC(=O)C(NC(=O)CNC(C)=O)c1ccc(Cl)cc1 (stereo not shown),12
7,O=C1c2cccnc2C(Nc2ccc(Br)cc2)N1Cc1cccs1 (stereo not shown),17
8,O=C(NC(=S)NC1CCCc2ccccc21)c1ccc(F)cc1 (stereo not shown),18.6
9,O=[N+]([O-])/C=C1\CCCCCN1,9.72
10,O=C1CCC(=O)N1CCSC(=S)N1CCOCC1,2.83
11,COc1cccc2c1cc1c(=O)n(CC(=O)NCCCN3CCCCC3)nc(C)n12,10.7
12,O=C(Cn1cnc2cc([N+](=O)[O-])ccc2c1=O)Nc1ccc2c(c1)CCC2,13.6
13,Cc1ccc(OCC(=O)O/N=C(\N)c2ccccn2)cc1C,10.4
14,CN(CC(=O)Nc1ccc(OC(F)(F)F)cc1)S(=O)(=O)c1cnc[nH]1,7.02
15,O=c1[nH]c2cc(Br)cnc2nc1/C=C(\O)c1ccc(F)cc1,11
16,CC1CCN=C(N)S1.Cl (stereo not shown),11.4
17,O=C(NC1CCCCC1)c1ccc(S(=O)(=O)c2ccccc2)cc1,9.93
18,COc1ccc(C(=O)NCCS(=O)(=O)NCc2ccccc2OC)cc1,8.09
19,Cc1[nH]c(=O)[nH]c(=O)c1S(=O)(=O)Nc1ccc(F)cc1Cl,13.9
20,CNC(=S)NCc1ccc(Cl)cc1,6.52
21,CSC1=NCCN1C(=O)c1c(F)cccc1Cl,-4.5
22,CCC1CCCCN1S(=O)(=O)c1ccc(C(=O)Nc2nnc(-c3cccs3)o2)cc1 (stereo not shown),-4.08
